Laboratory results as given in publication PMC12136788.
Some of the results follow.

T1: UNK ZnF1-3 (human, UniProt Q9C0B0 31-174)
T1 sequence: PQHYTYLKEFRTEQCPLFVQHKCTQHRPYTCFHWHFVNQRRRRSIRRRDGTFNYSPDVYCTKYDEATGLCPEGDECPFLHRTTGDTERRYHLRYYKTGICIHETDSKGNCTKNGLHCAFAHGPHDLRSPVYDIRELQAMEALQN

B1: 87763691_87772365_1231_CDS_ENSG00000008277_ENST00000398209|human|control|control (ssRNA)
RNA: GGGAGUUCUACAGUCCGACGAUCGGUGAACUUUUUAGGAAGAUAAUAGCCAGUGUCUCCCAUUAUGCACCCGGACCACGUGUCCUCGCAUUUACAUUCACCACUUGCUAACUUUCUUUUGUCUGAGAUAAUACCAAUAUUAUGCAACAGAGGAUUGAGCAUCA
B2: chr17:56552419:56552420:-_ENSMUSG00000013236_ENSMUST00000086828|mus_mus|mus_mus_mus_hu_False|78_108 (ssRNA)
RNA: GGGAGUUCUACAGUCCGACGAUCAAAGUUUUUUUCUUUUAAAAAAAAUGAAAUGUCAGAAAAAGAAGUUACACUGAGAGUUUUAAAAGAAAGCUGGAUUCUGGUCCCAGCCCAGUGUCCCCAGGCUGCAGAGCGGGGAGGAGCCAACAGAGGAUUGAGCAUCA
B3: chr16:94690093:94690094:+_ENSMUSG00000040785_ENSMUST00000117648|mus_hu|mus_mus_mus_hu_True|28_28 (ssRNA)
RNA: GGGAGUUCUACAGUCCGACGAUCGGGCUGGGAUGACGGACACACAGCCUCGAUUCCAGGGGGAAAAAGUCUUAGUCGAUACUAAUUAAAAAGUGUUAAUGAUUUUUAUUACCAAAAUUACAUCUAUAAAAGAUGAAAAGCAAACAACAGAGGAUUGAGCAUCA
B4: chr7:108143013:108143014:-_ENSG00000135241_ENST00000257694|hu_mus|motif|central (ssRNA)
RNA: GGGAGUUCUACAGUCCGACGAUCGAGGAUUCGGAUUCCUCUGCCUUUCACUGGAUCUACAUAACCAAUUAAAGCCAAAAUUUCUCGGACUGCAGCCUGAAGAGUUUCAUCCUUAACUUGUCUCAGCCGUAAUAAAUAUGGAAUCAACAGAGGAUUGAGCAUCA
B5: chr1:89688648:89688649:+_ENSMUSG00000026289_ENSMUST00000027512|mus_mus|motif|central (ssRNA)
RNA: GGGAGUUCUACAGUCCGACGAUCGAGCAGGACAGAGAAUGCUUUCCCAGCCCAGCCUUCAUCAUCACCAGCUCCGGGGUAGGCUUCUCUUACCAACACUGCACUGCACGCACAGGCAGUGGCUGGCCUCACCACUCUCUGCUCCAACAGAGGAUUGAGCAUCA
B6: chrX:71549762:71549763:+_ENSMUSG00000019087_ENSMUST00000019231|mus_mus|mus_mus_mus_hu_False|1_98 (ssRNA)
RNA: GGGAGUUCUACAGUCCGACGAUCAAACCCGUGUACUCACUCUUAACAGCACAACAUCACCAGAAAACGAUAACGACAGCCAAGCAGGACAGACAGUUAAGUAGUACUUCCACACUCCCAAACUCAGGGAGCCCUAUAGUUCAUCAACAGAGGAUUGAGCAUCA

Target: T1, UNK ZnF1-3
Test: nsRBNS (natural sequence RNA bind-n-seq); RBNS binding buffer (assumed for nsRBNS): 25 mM Tris pH 7.5, 150 mM KCl, 3 mM MgCl2, 0.01% Triton X-100, 500 ug/ml BSA, 20 U/ml SUPERase-In, 4 C; UNK is unkempt and MSI1 is Musashi-1; names of the RNAs are library labels; protein concentration not given here; high values mean tight binding

| Binder | binding signal |
| --- | --- |
| B1 | 0.368 enrichment R |
| B2 | 2.07 enrichment R |
| B3 | 1.28 enrichment R |
| B4 | 0.962 enrichment R |
| B5 | 1.01 enrichment R |
| B6 | 1.76 enrichment R |
